According to the supplement of paper PMC4604168 (melanoma cell lines):
This is one part of the list. Single values are uncertain, as repeats are few or missing.

Assays:
Assay in all cases: cell count relative to DMSO control; melanoma cells; higher = more viable cells
Conditions in all cases: library dose: low library concentration; 72 h
COLO792 = tested on: COLO792
COLO800 = tested on: COLO800
COLO829 = tested on: COLO829
G361 = tested on: G361
IPC-298 = tested on: IPC-298
IST-MEL1 = tested on: IST-MEL1
LB2518-MEL = tested on: LB2518-MEL
LOXIMVI = tested on: LOXIMVI
MEL-HO = tested on: MEL-HO
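Also: cell number obtained by counting DAPI-stained nuclei in high-throughput microscope images with image analysis software, screen run in 1,536-well plates.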

SMILES	cell count (COLO792) [%]	cell count (COLO800) [%]	cell count (COLO829) [%]	cell count (G361) [%]	cell count (IPC-298) [%]	cell count (IST-MEL1) [%]	cell count (LB2518-MEL) [%]	cell count (LOXIMVI) [%]	cell count (MEL-HO) [%]
C[C@@H](Oc1cc(-c2cnn(C3CCNCC3)c2)cnc1N)c1c(Cl)ccc(F)c1Cl [Crizotinib] + COC(=O)c1sccc1S(=O)(=O)Nc1ccc(Nc2ccccc2)cc1OC [GSK0660] (first compound 0.2 µM, partner dose 1 µM)	87.6	77.8	99.2	92.7	100	94.5	99.7	120	97.6
CS(=O)(=O)CCNCc1ccc(-c2ccc3ncnc(Nc4ccc(OCc5cccc(F)c5)c(Cl)c4)c3c2)o1 [lapatinib] + COc1ccc(-c2ccc3c(N4CCOCC4)nc(N4C[C@@H](C)O[C@@H](C)C4)nc3n2)cc1CO [KU0063794] (first compound 0.8 µM, partner dose 0.02 µM)	83.2	113	86.8	117	89	97.1	98.4	200	92.8
C[C@@H](Oc1cc(-c2cnn(C3CCNCC3)c2)cnc1N)c1c(Cl)ccc(F)c1Cl [Crizotinib] + Cc1cc(N2CCOCC2)cc2[nH]c(-c3c(NC[C@@H](O)c4cccc(Cl)c4)cc[nH]c3=O)nc12 [BMS536924] (first compound 0.2 µM, partner dose 0.2 µM)	87.8	50.6	108	84.5	97.6	96.3	80.5	104	85.9
C=CCNC1=C2C[C@@H](C)C[C@H](OC)[C@H](O)[C@@H](C)/C=C(\C)[C@H](OC(N)=O)[C@@H](OC)/C=C\C=C(/C)C(=O)NC(=CC1=O)C2=O [Tanespimycin] + OCCn1cc(-c2cnc3nnn(Cc4ccc5ncccc5c4)c3n2)cn1 [PF04217903] (first compound 0.002 µM, partner dose 1 µM)	91.6	80.7	98	94.2	93.2	99.1	97.4	73.4	88.8
CS(=O)(=O)CCNCc1ccc(-c2ccc3ncnc(Nc4ccc(OCc5cccc(F)c5)c(Cl)c4)c3c2)o1 [lapatinib] + CCN(CC)CCCCNc1ncc2cc(-c3cc(OC)cc(OC)c3)c(NC(=O)NC(C)(C)C)nc2n1 [PD173074] (first compound 0.8 µM, partner dose 0.1 µM)	73.5	106	98.4	88.4	96.9	91	83.4	77.9	90.7
C[C@@H](Oc1cc(-c2cnn(C3CCNCC3)c2)cnc1N)c1c(Cl)ccc(F)c1Cl [Crizotinib] + COc1cc2c(Oc3ccc4[nH]c(C)cc4c3F)ncnc2cc1OCCCN1CCCC1 [cediranib] (first compound 0.2 µM, partner dose 0.4 µM)	91.3	87.2	108	99.6	97.6	97.4	83.2	134	106
C[C@@H](Oc1cc(-c2cnn(C3CCNCC3)c2)cnc1N)c1c(Cl)ccc(F)c1Cl [Crizotinib] + O=C(O)C(=O)Nc1sc2c(c1C(=O)O)CCNC2 [TCS401] (first compound 0.2 µM, partner dose 1.66667 µM)	97.2	131	87.7	98.7	99.6	102	92.4	130	89.7
CN1CCN(c2ccc3nc(-c4c(N)c5c(F)cccc5[nH]c4=O)[nH]c3c2)CC1 [Dovitinib] + COc1cc(N2CCC(N3CCN(C)CC3)CC2)ccc1Nc1ncc(Cl)c(Nc2ccccc2S(=O)(=O)C(C)C)n1 [NVP-TAE684] (first compound 0.1 µM, partner dose 0.08 µM)	93.2	81.4	80.3	81.8	96.8	98.9	87	101	92.7
CN1CCN(c2ccc3nc(-c4c(N)c5c(F)cccc5[nH]c4=O)[nH]c3c2)CC1 [Dovitinib] + COc1cc2ncnc(Nc3ccc(Oc4ccccc4)cc3)c2cc1OC [SrcI1] (first compound 0.1 µM, partner dose 2 µM)	89.8	43.2	124	91.5	93.6	104	93	158	105
CS(=O)(=O)CCNCc1ccc(-c2ccc3ncnc(Nc4ccc(OCc5cccc(F)c5)c(Cl)c4)c3c2)o1 [lapatinib] + O=C(O)C(=O)Nc1sc2c(c1C(=O)O)CCNC2 [TCS401] (first compound 0.8 µM, partner dose 1.66667 µM)	91.5	110	93.1	97.5	88.3	103	109	80.3	97.5
CNC(=O)c1cc(Oc2ccc(NC(=O)Nc3ccc(Cl)c(C(F)(F)F)c3)cc2)ccn1 [sorafenib] + CCN(CC)CCCCNc1ncc2cc(-c3cc(OC)cc(OC)c3)c(NC(=O)NC(C)(C)C)nc2n1 [PD173074] (first compound 0.4 µM, partner dose 0.1 µM)	122	102	106	98.3	98.7	98.8	128	101	103
CS(=O)(=O)CCNCc1ccc(-c2ccc3ncnc(Nc4ccc(OCc5cccc(F)c5)c(Cl)c4)c3c2)o1 [lapatinib] + COc1cc2c(Oc3ccc4[nH]c(C)cc4c3F)ncnc2cc1OCCCN1CCCC1 [cediranib] (first compound 0.8 µM, partner dose 0.4 µM)	87.4	118	109	96.4	104	98.3	99	104	101
CNC(=O)c1cc(Oc2ccc(NC(=O)Nc3ccc(Cl)c(C(F)(F)F)c3)cc2)ccn1 [sorafenib] + Oc1nc(-c2ccc(C(F)(F)F)cc2)nc2c1CSCC2 [XAV939] (first compound 0.4 µM, partner dose 2 µM)	101	68.9	90.2	84.6	89.7	105	106	57.2	98.1
CS(=O)(=O)CCNCc1ccc(-c2ccc3ncnc(Nc4ccc(OCc5cccc(F)c5)c(Cl)c4)c3c2)o1 [lapatinib] + Oc1cc(-c2nc(-c3ccccc3)[nH]c2-c2ccncc2)ccc1Cl [L779450] (first compound 0.8 µM, partner dose 0.2 µM)	98.4	115	119	93.4	72.9	97.3	85.9	109	81.9
CS(=O)(=O)CCNCc1ccc(-c2ccc3ncnc(Nc4ccc(OCc5cccc(F)c5)c(Cl)c4)c3c2)o1 [lapatinib] + O=C1NC(=O)/C(=C/c2ccc(-c3ccc(F)cc3O)o2)S1 [AS252424] (first compound 0.8 µM, partner dose 1 µM)	77.5	58.7	94.2	90.9	93.5	91.1	98.9	153	76.7
CS(=O)(=O)CCNCc1ccc(-c2ccc3ncnc(Nc4ccc(OCc5cccc(F)c5)c(Cl)c4)c3c2)o1 [lapatinib] + COc1ccc(COc2ccc(Cc3cnc(N)nc3N)cc2OC)cc1 [GW2580] (first compound 0.8 µM, partner dose 1 µM)	76.6	110	83.7	95.6	90.7	100	102	108	110
C[C@@H](Oc1cc(-c2cnn(C3CCNCC3)c2)cnc1N)c1c(Cl)ccc(F)c1Cl [Crizotinib] + CCc1ccc(CCOc2ccc(CC3SC(=O)NC3=O)cc2)nc1 [pioglitazone] (first compound 0.2 µM, partner dose 2 µM)	101	128	126	91.2	102	94.9	97.2	127	103
C=CCNC1=C2C[C@@H](C)C[C@H](OC)[C@H](O)[C@@H](C)/C=C(\C)[C@H](OC(N)=O)[C@@H](OC)/C=C\C=C(/C)C(=O)NC(=CC1=O)C2=O [Tanespimycin] + COC(=O)c1sccc1S(=O)(=O)Nc1ccc(Nc2ccccc2)cc1OC [GSK0660] (first compound 0.002 µM, partner dose 1 µM)	114	87.8	125	104	99.3	97.7	112	98.4	106
CNC(=O)c1cc(Oc2ccc(NC(=O)Nc3ccc(Cl)c(C(F)(F)F)c3)cc2)ccn1 [sorafenib] + C[C@@H]1CCN(C(=O)CC#N)C[C@@H]1N(C)c1ncnc2[nH]ccc12 [CP690550] (first compound 0.4 µM, partner dose 1 µM)	89.4	75.9	85	110	96.1	96.8	117	215	107
CNC(=O)c1cc(Oc2ccc(NC(=O)Nc3ccc(Cl)c(C(F)(F)F)c3)cc2)ccn1 [sorafenib] + O=C(O)C(=O)Nc1sc2c(c1C(=O)O)CCNC2 [TCS401] (first compound 0.4 µM, partner dose 1.66667 µM)	106	98	85.5	106	96.7	89.3	110	104	96.6
CN1CCN(c2ccc3nc(-c4c(N)c5c(F)cccc5[nH]c4=O)[nH]c3c2)CC1 [Dovitinib] + Oc1cc(-c2nc(-c3ccccc3)[nH]c2-c2ccncc2)ccc1Cl [L779450] (first compound 0.1 µM, partner dose 0.2 µM)	101	87.6	99	91.1	88.2	99.2	92.9	69.2	98
